Source: the supplement of paper PMC10338343
± gives the standard deviation. This is a selection; strong and weak results do not stand in their true shares.

What follows are sequences tested on MIWI (PIWIL1) piRISC loaded with L1MC piRNA (30 nt) (assay: pre-steady-state target cleavage rate (min^-1); MIWI and MILI are mouse PIWI proteins and EfPiwi is from a freshwater sponge; tags in brackets are library labels; higher = faster piRNA-guided slicing of the target). Details: guide: L1MC piRNA 5'p-UAACUAAAUACUAUGCAAGCUGUAGGUCCU; auxiliary factor: 500 nM mouse GTSF1.
Summary of the method: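 A transcribed, DNA-blocked target RNA library […] was incubated at 33 °C for 0–8 or 0–960 min with 1 nM active affinity-purified piRISC carrying one synthetic guide, in HEPES–potassium acetate buffer with or without 500 nM GTSF1 partner protein. Uncleaved targets were then sequenced and normalised to depth and to weakly complementary targets. Data from three trials were pooled, with k3 capped at 0.0001 min^-1, and a burst-and-steady-state fit yielded the pre-steady-state cleavage rate.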
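Further: 1 nM active piRISC with 0.1 nM target library at 33 °C single turnover.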

| Sequence | pre-steady-state target cleavage rate |
| --- | --- |
| UGGACCUACAGCUUGCAAUGUAUUUAGUAA | 0.268 ± 0.032 |
| UCGACCUACAGCUUGCAAAGUAUUAAGUUA | 0.777 ± 0.051 |
| UCCUGGAUGAGCUUGCAAAGUAUUAAGUUA | 0.331 ± 0.035 |
| UGGACCUUGUGCUUGCAUAGUAUUUACAAA | 0.0152 ± 0.0046 |
| UCCACCAACAGCUUGCAUAGUAUAUAGUUA | 0.547 ± 0.036 |
| UCCUGGAUCAGCUUGCAUAGUAUUUAUUUA | 0.333 ± 0.037 |
| UCCUCCUACAGCUUGCAUAGUACUUAGUUA | 0.947 ± 0.033 |
| AGGACCUACAGCUUGGAUAGUAUUUACUUA | 0.478 ± 0.054 |
| UCCUGGAUGUGCUUGCAUAGUAUUUAGUUU [g2:g20:cont:t1U] | 0.481 ± 0.037 |
| UCGACCUACAGCUUGCAUAGGAUUUAGUUA | 0.0503 ± 0.0089 |
| UGCACCUACAGCUUGCAUAGUAUUUAGAAA | 0.471 ± 0.051 |
| UCCUGGAUGAGCUUGCAUAGUAUAUAGAUA | 0.11 ± 0.023 |
| UCGACCUACAGCUUUGCAUAGUAUUUAGUUA | 1.4 ± 0.061 |
| UGGACCUACAGCUUGCAUAGUAUAAUGUAA | 0.109 ± 0.024 |
| UCCUCCUACAGCUUGCAUACAAUUUAGUUA | 0.0256 ± 0.0087 |
| UCCACCAACAGCUUGCAUAGUAAUUAGUUA | 0.715 ± 0.032 |
| UCCUGGAACAGCUUGACAUAGUAUUUAGUUA | 0.577 ± 0.039 |
| UCCUGCUACAGCUUGGAUAGUAUUUUGUUA | 0.711 ± 0.062 |
| UCCUGGAACAGGUUGCAUAGUAUUAAGUUA | 0.518 ± 0.052 |
| UCCUGCUACAGCAUGCAAAGUAUUUAGUUA | 0.865 ± 0.066 |

| Sequence | pre-steady-state target cleavage rate |
| --- | --- |
| UCCACCUACAGCUUGCAUACUAAUUAGUUA | 0.186 ± 0.025 |
| UCCACCUACAGCUUGGAUUGUAUUUAGUUA | 0.417 ± 0.018 |
| UCGACCUACACCUUGCAUAGUAUUUAGAUA | 0.428 ± 0.056 |
| UCCUGGAACAGCUUGCAUAGUAUGUUAGUUA | 0.439 ± 0.064 |
| UCGACCUACAGCUUGCAUAGUAUUAAGAUA | 0.248 ± 0.029 |
| AGGUCCUACAGCUUGGAUAGUAUUUAGUUA | 1.39 ± 0.072 |
| UCCUGGAUCAGCUUGCAAGUAUUUAGUUA | 0.0233 ± 0.0057 |
| UCCUGCUACAGGUUGCAUAGUAUAUAGUUA | 0.819 ± 0.094 |
| UCCUGGAUCAGCUUGCAAAGUAUUUUGUUA | 0.561 ± 0.04 |
| UCCUGGAACAGCUUCCAUAGUAUUUAGUUA | 0.0645 ± 0.015 |
| UCCUGGAAGAGCAUGCAUAGUAUUUAGUUA | 0.57 ± 0.043 |
| UGGACCUACAGCUUGCAUAGUAUGUAGUUA | 0.332 ± 0.041 |
| UCCUCGUUCAGCUUGCAUAGUAUUUAGUUA | 1.4 ± 0.041 |
| UCCUGCUACAGCUUGGCAUAGUAUUUAGUUA | 0.62 ± 0.096 |
| UCGACGUACAGCUUGCAUAGUAUUUACUUA | 0.217 ± 0.021 |
| UGGACCUACAGCUUGCAUAGUAUUUAGAAA | 0.515 ± 0.049 |
| AGGACCUACAGCUUGCAUUCUAUUUAGUUA | 0.372 ± 0.028 |
| AGGACCUACAGCAUGCAUAGUAUUUAGAAA | 0.577 ± 0.059 |
| UCCUCCUACAGCUUCGCAUAGUAUUUAGUUA | 1.08 ± 0.039 |
| UCCUCCUACUGCAUGCAUAGUAUUUAGUUA | 1.14 ± 0.04 |

Same assay, conditions: guide: L1MC piRNA 5'p-UAACUAAAUACUAUGCAAGCUGUAGGUCCU; auxiliary factor: none (no GTSF1)

| Sequence | pre-steady-state target cleavage rate |
| --- | --- |
| UGGACCUACAGCUUGCAAUGUAUUUAGUAA | 0.00319 ± 0.0022 |
| UCGACCUACAGCUUGCAAAGUAUUAAGUUA | 0.00875 ± 0.0026 |
| UCCUGGAUGAGCUUGCAAAGUAUUAAGUUA | 0.00974 ± 0.0037 |
| UGGACCUUGUGCUUGCAUAGUAUUUACAAA | 0.00388 ± 0.0021 |
| UCCACCAACAGCUUGCAUAGUAUAUAGUUA | 0.0205 ± 0.0046 |
| UCCUGGAUCAGCUUGCAUAGUAUUUAUUUA | 0.0217 ± 0.0055 |
| UCCUCCUACAGCUUGCAUAGUACUUAGUUA | 0.041 ± 0.0077 |
| AGGACCUACAGCUUGGAUAGUAUUUACUUA | 0.0287 ± 0.0043 |
| UCCUGGAUGUGCUUGCAUAGUAUUUAGUUU [g2:g20:cont:t1U] | 0.0457 ± 0.01 |
| UCGACCUACAGCUUGCAUAGGAUUUAGUUA | 0.00712 ± 0.0025 |
| UGCACCUACAGCUUGCAUAGUAUUUAGAAA | 0.0074 ± 0.0034 |
| UCCUGGAUGAGCUUGCAUAGUAUAUAGAUA | 0.00493 ± 0.0023 |
| UCGACCUACAGCUUUGCAUAGUAUUUAGUUA | 0.0371 ± 0.0078 |
| UGGACCUACAGCUUGCAUAGUAUAAUGUAA | 0.00483 ± 0.0028 |
| UCCUCCUACAGCUUGCAUACAAUUUAGUUA | 0.00388 ± 0.0026 |
| UCCACCAACAGCUUGCAUAGUAAUUAGUUA | 0.024 ± 0.0052 |
| UCCUGGAACAGCUUGACAUAGUAUUUAGUUA | 0.00762 ± 0.0037 |
| UCCUGCUACAGCUUGGAUAGUAUUUUGUUA | 0.022 ± 0.0045 |
| UCCUGGAACAGGUUGCAUAGUAUUAAGUUA | 0.00635 ± 0.0026 |
| UCCUGCUACAGCAUGCAAAGUAUUUAGUUA | 0.0121 ± 0.003 |

| Sequence | pre-steady-state target cleavage rate |
| --- | --- |
| UCCACCUACAGCUUGCAUACUAAUUAGUUA | 0.00741 ± 0.0024 |
| UCCACCUACAGCUUGGAUUGUAUUUAGUUA | 0.0124 ± 0.0027 |
| UCGACCUACACCUUGCAUAGUAUUUAGAUA | 0.0194 ± 0.0038 |
| UCCUGGAACAGCUUGCAUAGUAUGUUAGUUA | 0.0194 ± 0.0059 |
| UCGACCUACAGCUUGCAUAGUAUUAAGAUA | 0.00627 ± 0.0027 |
| AGGUCCUACAGCUUGGAUAGUAUUUAGUUA | 0.079 ± 0.014 |
| UCCUGGAUCAGCUUGCAAGUAUUUAGUUA | 0.00599 ± 0.0022 |
| UCCUGCUACAGGUUGCAUAGUAUAUAGUUA | 0.00923 ± 0.0028 |
| UCCUGGAUCAGCUUGCAAAGUAUUUUGUUA | 0.0138 ± 0.0039 |
| UCCUGGAACAGCUUCCAUAGUAUUUAGUUA | 0.00407 ± 0.0015 |
| UCCUGGAAGAGCAUGCAUAGUAUUUAGUUA | 0.00937 ± 0.0025 |
| UGGACCUACAGCUUGCAUAGUAUGUAGUUA | 0.0171 ± 0.0041 |
| UCCUCGUUCAGCUUGCAUAGUAUUUAGUUA | 0.0653 ± 0.014 |
| UCCUGCUACAGCUUGGCAUAGUAUUUAGUUA | 0.00705 ± 0.0022 |
| UCGACGUACAGCUUGCAUAGUAUUUACUUA | 0.0278 ± 0.0047 |
| UGGACCUACAGCUUGCAUAGUAUUUAGAAA | 0.0136 ± 0.0046 |
| AGGACCUACAGCUUGCAUUCUAUUUAGUUA | 0.0121 ± 0.0035 |
| AGGACCUACAGCAUGCAUAGUAUUUAGAAA | 0.00715 ± 0.0031 |
| UCCUCCUACAGCUUCGCAUAGUAUUUAGUUA | 0.00906 ± 0.0025 |
| UCCUCCUACUGCAUGCAUAGUAUUUAGUUA | 0.0233 ± 0.0043 |
